PubChem BioAssay AID602179 (National Center for Advancing Translational Sciences (NCATS), 2012)
Among all 390,000 compounds or so, about 360 (0.092%) were called active. Inconclusive results, whose numbers are uncertain, are shown with a selection of clear calls. The call rests on the fitted dose curve; in most records, active means well fitted inhibition curve with a large enough effect; inconclusive means small, poorly fitted or top-dose-only effect; inactive means no such curve, though single readings can be large or run the other way. Potencies beside an inconclusive call are fits to weak or partial responses and may not hold up.

The compounds below were run against Isocitrate dehydrogenase [NADP] cytoplasmic (Homo sapiens) (UniProt O75874) (assay: qHTS for Inhibitors of mutant isocitrate dehydrogenase 1 (IDH1): qHTS). Details: IDH1-R132H enzyme, NADPH consumption, diaphorase/resazurin fluorescence; series mostly up to 76.6 µM; activity change, negative = inhibition: at the top concentration.
In short: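 IDH1-R132H (0.5 ug/mL dispensed) in pH 7.5 Tris buffer was preincubated 30 min with compound, then given a substrate mix of 0.016 mM NADPH and 2 mM alpha-KG for 80 min at room temperature; remaining NADPH was read by diaphorase/resazurin fluorescence.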
Further: nearly all actives have a fitted effect of over 65% in size.
On the % scale 0 is the no-effect control and ±100 the full control effect; potency means the concentration at half of the fitted maximal effect; tags describe the fitted curve by direction and shape.

| Compound | Potency | activity change, negative = inhibition |
| --- | --- | --- |
| Cc1cc2[nH]c(=O)c(=O)[nH]c2cc1S(=O)(=O)N1CCN(c2cccc(C(F)(F)F)c2)CC1 | inconclusive: 50.1 µM [inhibitor, single point] |  |
| CCC(CO)Oc1cc(NCc2ccccc2F)c2ncn(C(C)C)c2c1 (configuration not stated) | inconclusive: 50.1 µM [inhibitor, single point] |  |
| COc1cc(/C=C2\SC(c3ccccc3)=NC2=O)cc(Cl)c1O | active: 58.5 µM |  |
| O=C(NCc1ccc2c(c1)OCO2)c1cc2c(s1)CSC2 |  | inactive: 0.939% |
| COc1ccccc1OCCCSc1nc(-c2ccc(C(C)(C)C)cc2)nc2cc(=O)[nH]n12 | inconclusive: 44.7 µM [inhibitor, partial curve, poor fit] |  |
| Cc1ccc(C)c(S(=O)(=O)c2cn(C)c3cc(N4CCCCC4C)c(F)cc3c2=O)c1 (configuration not stated) | inconclusive: 15.8 µM [inhibitor, full curve] |  |
| O=C(O)c1ccccc1-c1c2cc(I)c(=O)c(I)c-2oc2c(I)c(O)c(I)cc12 | inconclusive: 44.7 µM [inhibitor, partial curve, poor fit] |  |
| CN1C=CC2=C(C#N)C(N)C(C#N)(C#N)[C@H](c3ccccc3)[C@H]2C1 (some centres not stated) | inconclusive: 16.5 µM [inhibitor, partial curve, poor fit] |  |
| CC(C)c1ccc(NC(=O)c2ccc(CN3CC(=O)N4CCCCC4C3=O)cc2)cc1 (configuration not stated) |  | inactive: -0.814% |
| Cc1cccc(NC(=O)c2ccc(Cn3nc(N4CCN(c5ccccc5)CC4)ccc3=O)o2)c1C |  | inactive: 9.48% |
| CC1(C)Oc2ccc3ccc(=O)oc3c2/C(=C/Nc2cccc(O)c2)C1=O | inconclusive: 14.7 µM [inhibitor, full curve] |  |
| N#CC1=C(N)C(C#N)(C#N)C(c2cccnc2)C2CC(c3ccccc3)CC=C12 (configuration not stated) | active: 13.1 µM |  |
| Cc1cc(C)c2nc(-c3cccnc3)cc(C(=O)Nc3ccc(S(=O)(=O)Nc4onc(C)c4C)cc3)c2c1 | inconclusive: 58.5 µM [inhibitor, single point] |  |
| COc1ccccc1NC(=O)CSc1n[nH]c(Cc2ccccc2)n1 |  | inactive: 2.74% |
| Cc1ccc(Nc2nc(N)c([N+](=O)[O-])c(NCc3ccccc3)n2)cc1 | inconclusive: 58.5 µM [inhibitor, single point] |  |
| Cc1cc(C)cc(NC(=O)CSc2c(C(C)C)cnc3c2c(=O)n(C)c(=O)n3C)c1 | inconclusive: 6.31 µM [inhibitor, single point] |  |
| CC(C)C1C(=O)N(Cc2cn(CCC3OCCCO3)nn2)CCS(=O)(=O)N1Cc1ccc(-c2ccc(Cl)c(Cl)c2)cc1 (configuration not stated) | inconclusive: 50.1 µM [inhibitor, partial curve, poor fit] |  |
